The results in this text go back to PubChem BioAssay AID1508623 (National Center for Advancing Translational Sciences (NCATS), 2021).

In all, about 48,000 compounds went through this assay and about 450 (0.94%) were called active. Roughly 19% stayed inconclusive and do not appear here. The call rests on the fitted dose curve; in most records, active means well fitted inhibition curve with a large enough effect; inconclusive means small, poorly fitted or top-dose-only effect; inactive means no such curve, though single readings can be large or run the other way. Some of the results follow.

This assay in a line: Primary qHTS for Identification of Small Molecule Inhibitors of Huntingtin Promoter Activity. Further: nearly all actives have a fitted effect of over 50% in size. Conditions: HEK293 HTT promoter firefly luciferase reporter (activity 0% = vehicle and -100% = no light), 24 h; series mostly up to 57.5 µM; activity change, negative = inhibition: at the top concentration. Put shortly:
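Luminescence was read after Dual-Glo reagent and a 10 min room-temperature incubation. Values were normalized to vehicle (0% activity) and zero RLU (-100% activity). Reporter HEK293 cells had been exposed to compounds (up to 57.5 uM final) for 24 h.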
On the technique in general: qHTS replaces the single test concentration by a dilution series.
Turning to `Cc1ccc(NC(=O)C2CC(=O)N(c3ccc(OC(C)C)cc3)C2)cc1` (configuration not stated), the “activity change, negative = inhibition” value is inactive: 1.12%.

`CCOC(=O)c1c(C)c(-c2ccccc2)n(CC(=O)NC(CC)Cc2ccccc2)c1C` (configuration not stated): the “activity change, negative = inhibition” value is inactive: -5.68%.

Consider `CCN(CC)c1ccc(NC(=O)C2CCN(S(=O)(=O)c3cnc[nH]3)CC2)c(C)c1`, for which the “activity change, negative = inhibition” value is inactive: -14.4%.

With `COc1ccccc1N1CCN(C(=O)c2cnn(-c3ccc(F)cc3F)c2C2CCNCC2)CC1`, the “activity change, negative = inhibition” value is inactive: -15.8%.

In the case of `COc1cccc(C(=O)Nc2ccc3oc(-c4cccc5c(Br)cccc45)nc3c2)c1`, the “activity change, negative = inhibition” value is inactive: 2.21%.

With `Cc1ccc(Nc2nnc(-c3ccc(C)c(S(N)(=O)=O)c3)c3ccccc23)cc1`, the “activity change, negative = inhibition” value was inactive: -33.4%.

As to `CCc1ccccc1N(C)C(=O)c1ccc2c(=O)n3c(nc2c1)CCCCC3`, the “activity change, negative = inhibition” value is inactive: -15.9%.

For the compound `COc1ccc(S(=O)(=O)NCC(c2ccc(N(C)C)cc2)N2CCc3ccccc32)cc1OC` (configuration not stated), the “activity change, negative = inhibition” value was inactive: -4.92%.

For `Cc1cccc(OCC(=O)Nc2cccc3cccnc23)c1C`, the “activity change, negative = inhibition” value was inactive: 1.1%.

With `COc1ccc(N2CCN(C(=O)CCc3c(C)nc4cc(-c5ccc(OC)cc5OC)nn4c3C)CC2)cc1`, the “activity change, negative = inhibition” value was inactive: -22.7%.

For `CCOC(=O)c1c(NC(=O)c2ccccc2OCC)sc2c1CCC(CC)C2` (configuration not stated), the “activity change, negative = inhibition” value is inactive: 0.175%.

Take `Cc1nnc(N2C(=O)c3oc4ccccc4c(=O)c3C2c2ccc(Cl)cc2)s1` (configuration not stated): the “activity change, negative = inhibition” value was inactive: -16.3%.

Consider `Cc1ccc2c(c1)C(=O)OC(C(=O)Nc1ncc(Cc3ccc(Cl)cc3)s1)C2` (configuration not stated), for which the “activity change, negative = inhibition” value is inactive: 8.83%.

Consider `O=S(=O)(O)c1ccc2cc(N=Nc3cc(S(=O)(=O)O)c4cccnc4c3O)ccc2c1`, for which the “activity change, negative = inhibition” value is inactive: -9.52%.

For `Cc1cccc(C)c1-n1ncc(C(=O)NC2CCCC2)c1C1CCN(C(=O)OC(C)(C)C)CC1`, the “activity change, negative = inhibition” value is inactive: -11%.

On to `CCOc1ccc(NC(=O)NCc2cccn2Cc2ccccc2)cc1`, for which the “activity change, negative = inhibition” value was inactive: -7.71%.

On to `CC(=O)O[C@]1(C(C)=O)CC[C@H]2[C@@H]3C[C@H](C)C4=CC(=O)CC[C@]4(C)[C@H]3CC[C@@]21C`, for which the “activity change, negative = inhibition” value was inactive: -7.22%.

Take `O=C(COc1ccc(Cl)cc1Cl)Nc1cccc2cccnc12`: the “activity change, negative = inhibition” value is inactive: 6.41%.

With `Cc1ccc2oc(-c3ccc(C)c(NC(=O)/C=C/c4ccc(Cl)cc4)c3)nc2c1`, the “activity change, negative = inhibition” value was inactive: 11.2%.

On to `COc1ccc(Nc2c(-c3ccc(C)o3)nc3cc(C)ccn23)cc1`, for which the “activity change, negative = inhibition” value is inactive: 45.8%.

`Cc1ccc2[nH]c3c(=O)n(CC(=O)N(CCN(C)C)Cc4ccccc4)ncc3c2c1`: the “activity change, negative = inhibition” value was inactive: -5.31%.

On to `Clc1cccc(C(c2ccc3nc[nH]c3c2)n2ccnc2)c1` (configuration not stated), for which the “activity change, negative = inhibition” value is inactive: -6.09%.

With `CC(C)(C)c1nc2c3cc[nH]c(=O)c3c3cc(F)ccc3c2[nH]1`, the “activity change, negative = inhibition” value is inactive: -3.07%.

In the case of `CCOC(=O)CNC(=O)N1[C@H](c2cccs2)[C@@H](C)C(=O)[C@@H](C)[C@@H]1c1cccs1`, the “activity change, negative = inhibition” value was inactive: -12.5%.

As to `CCOc1ccc(N2CC(NC(=O)C3CCCCC3)CC2=O)cc1` (configuration not stated), the “activity change, negative = inhibition” value is inactive: -2.11%.

For `CC(C)NCC(O)c1ccc2ccccc2c1` (configuration not stated), the “activity change, negative = inhibition” value is inactive: 2.01%.

For `COc1cc(NC(=O)c2nc3nc(C)cc(C(F)F)n3n2)c(OC)cc1Cl`, the “activity change, negative = inhibition” value was inactive: -5.54%.
